According to US20210403583A1 (ELIXIRON IMMUNOTHERAPEUTICS HONG KONG, published 2021):

How the values were obtained:
[1] = target: T1, recombinant human CSF1R-Fc fusion protein (human, UniProt P07333 partial chain); test: ELISA, coated human CSF1R-Fc (dimer)
T1 construct: probably the same protein; also called CSF1R-Fc (dimer); not shown: Fc part
Method: (§1) Materials and methods: Recombinant human CSF1R-His (Biolegend), or CSF1R-Fc fusion protein, were immobilized on 96 well microtiter plate at a concentration of 1 μg/mL in Coating Solution (SeraCare) overnight at 4° C. The wells were washed with wash solution (0.05% Tween20 in imidazole-buffered saline) and blocked with 1% BSA. Serial dilutions of the antibodies were added to wells. After incubation at 3TC for 1 h, the wells were washed with wash solution. Peroxidase-conjugated goat anti-human kappa light chain antibody (Bethyl) was applied to each well at 3TC for 1 h incubation. After washing, the wells were developed with TMB substrate for 5-10 min at RT and then stopped with 1 N HCl. Thereafter absorbance was measured at 450 nm and 650 nm. The EC50 values were calculated through GraphPad Prism7.

[2] = target: T2, recombinant human CSF1R-His (Biolegend) (human, UniProt P07333 partial chain, limits assumed); test: ELISA, coated human CSF1R-His (monomer)
T2 construct: Bought protein; also called CSF1R-His (monomer); hu-CSF1R; not shown: His tag
Method: as §1

[3] = target: T3, human CSF1R expressed on cells (293F/huCSF1R stable cells; AML5 cells; human monocytes and macrophages) (human, UniProt P07333 20-972); test: cell-based or functional assay
[4] = target: T4, cynomolgus CSF1R expressed on 293F cells (cynomolgus monkey, UniProt P07333 20-972 (human entry)); test: flow cytometry titration on 293F cells overexpressing cynomolgus CSF1R, anti-human IgG-Alexa Fluor 647
T4 construct: also called cynoCSF1R
T4 chain: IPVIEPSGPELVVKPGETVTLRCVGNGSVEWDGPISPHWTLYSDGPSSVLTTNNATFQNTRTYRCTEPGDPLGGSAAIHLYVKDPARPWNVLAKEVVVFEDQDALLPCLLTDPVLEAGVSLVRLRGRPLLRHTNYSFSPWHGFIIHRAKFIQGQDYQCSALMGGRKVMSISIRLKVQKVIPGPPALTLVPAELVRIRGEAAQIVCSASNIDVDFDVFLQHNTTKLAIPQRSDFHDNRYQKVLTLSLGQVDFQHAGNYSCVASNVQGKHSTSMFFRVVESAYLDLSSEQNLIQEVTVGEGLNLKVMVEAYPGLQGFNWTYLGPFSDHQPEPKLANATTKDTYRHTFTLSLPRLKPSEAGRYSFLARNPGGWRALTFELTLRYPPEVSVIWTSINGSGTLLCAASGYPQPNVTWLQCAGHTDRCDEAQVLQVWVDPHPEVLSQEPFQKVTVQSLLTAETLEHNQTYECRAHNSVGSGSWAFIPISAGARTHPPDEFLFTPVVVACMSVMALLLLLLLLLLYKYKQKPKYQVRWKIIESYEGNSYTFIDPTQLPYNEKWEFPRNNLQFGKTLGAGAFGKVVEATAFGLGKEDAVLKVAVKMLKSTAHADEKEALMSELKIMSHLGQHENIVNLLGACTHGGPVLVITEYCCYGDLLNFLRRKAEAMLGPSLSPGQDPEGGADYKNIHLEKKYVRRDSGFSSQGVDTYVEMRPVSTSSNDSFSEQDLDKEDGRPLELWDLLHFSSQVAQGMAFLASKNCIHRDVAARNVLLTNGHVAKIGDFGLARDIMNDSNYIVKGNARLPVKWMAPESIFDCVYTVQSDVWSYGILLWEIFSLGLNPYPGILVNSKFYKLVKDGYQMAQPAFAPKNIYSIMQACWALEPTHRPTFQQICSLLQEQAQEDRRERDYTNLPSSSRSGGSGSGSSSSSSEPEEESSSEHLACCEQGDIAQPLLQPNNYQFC
Text: Materials and methods: The gene segments encoding full-length human CSF1R or cynomolgus CSF1R were obtained using Thermo gene synthesis service and cloned in a mammalian expression vector pCDNA3.4. […] After washing with FACS buffer (2%FBS in PBS), the cells were stained with anti-human IgG-Alexa Fluor 647 and analyzed by Attune N×T Flow Cytometer (Thermo Scientific).

[5] = target: T1, recombinant human CSF1R-Fc fusion …; test: ELISA, coated human CSF1R-Fc
Method: Materials and methods: Recombinant human CSF1R-Fc, or mouse CSF1R-Fc (Sino Biological) were immobilized on 96 well microtiter plate at a concentration of 1 μg/mL in Coating Solution (SeraCare) overnight at 4° C. The wells were washed with wash solution (0.05% Tween20 in imidazole-buffered saline) and blocked with 1% BSA. Serial dilutions of the anti-CSF1R/IL-10 fusion proteins were added to wells. After incubation at 3TC for 1 h, the wells were washed with wash solution. To detect chimeric Ab/IL10 fusions, peroxidase-conjugated goat anti-human kappa light chain antibody (Bethyl) was applied to each well at 3TC for 1 h incubation. To detect AB98 or AB98/1110 fusions, peroxidase-conjugated Goat anti-mouse IgG Fab antibody (Jackson immunoresearch) was applied to each well at 3TC for 1 h incubation. After washing, the wells were developed with TMB substrate for 5-10 min at RT and then stopped with 1 N HCl. Thereafter absorbance was measured at 450 nm and 650 nm.

[6] = target: T3, human CSF1R expressed on cells …; test: cell-based or functional assay; remark: listed apart in the source
[7] = target: T5, recombinant human IL-10Ra fusion protein (R&D Systems) (human, UniProt Q13651 22-235); test: ELISA, coated human IL-10Ra fusion protein
T5 sequence (looked up): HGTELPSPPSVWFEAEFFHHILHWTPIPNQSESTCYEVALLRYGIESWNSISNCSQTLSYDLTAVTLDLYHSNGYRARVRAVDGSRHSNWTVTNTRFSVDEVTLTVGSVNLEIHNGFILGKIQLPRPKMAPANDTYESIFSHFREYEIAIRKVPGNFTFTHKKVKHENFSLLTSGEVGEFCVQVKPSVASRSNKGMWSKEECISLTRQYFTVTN
Method: Materials and methods: Recombinant human IL-10Ra fusion protein (R&D Systems) were immobilized on 96 well microtiter plate at a concentration of 1 μg/ml in Coating Solution (SeraCare) overnight at 4° C. The wells were washed with wash solution (0.05% Tween20 in imidazole-buffered saline) and blocked with 1% BSA. Serial dilutions of Ab/IL-10 fusion proteins were added to wells. After incubation at 37° C. for lhr, the wells were washed with wash solution. Peroxidase-conjugated goat anti-human kappa light chain antibody (Bethyl) was applied to each well at 37° C. for 1 hr incubation. After washing, the wells were developed with TMB substrate for 5-10 min at RT and then stopped with 1 N HCl. Thereafter absorbance was measured at 450 nm and 650 nm. The EC50 value was calculated through GraphPad Prism7.

B1: humanized anti-CSF1R antibody 6D4.hu22 (antibody, human IgG1, kappa)
heavy: QIQLVQSGAEVKKPGASVKVSCKASGYSFTGYNMNWVRQAPGKSLEWIGDINPYYGATTYNQKFKGRVTLTVDTSTSTAYMELSSLRSEDTAVYYCARRGDYGDYEGWYFDVWGQGTMVTVSS[letters of human IgG1 constant region left out]
light: DIQMTQSPSSLSASVGDRVTITCHASQNINVWLSWYQQKPGNAPKLLIYKASNLHTGVPSRFSGSGSGTDFTLTISSLQPEDIATYYCQQGQSYPYTFGGGTKLEIKRTVAAPSVFIFPPSDEQLKSGTASVVCLLNNFYPREAKVQWKVDNALQSGNSQESVTEQDSKDSTYSLSSTLTLSKADYEKHKVYACEVTHQGLSSPVTKSFNRGEC
notes: Humanized version of 6D4
In the case of B1, the EC50 [1] is reported as 145 pM, the EC50 [2] is reported as 211 pM and the “IC50 (M), CSF1-dependent AML5 cell proliferation” value [3] is reported as 5.71e-10 M.

B2: humanized anti-CSF1R antibody 6D4.hu41 (antibody, human IgG1, kappa)
heavy: B1 heavy with Q1E, V5Q, V20I, K23E, R38K, V68A
light: B1 light with L73F
notes: Humanized version of 6D4
For B2, the EC50 [1] was 139 pM, the EC50 [2] was 203 pM and the “IC50 (M), CSF1-dependent AML5 cell proliferation” value [3] was 5.97e-10 M.

B3: humanized anti-CSF1R/IL10 fusion protein 6D4.hu22/IL10 (antibody, human IgG1, kappa)
heavy: QIQLVQSGAEVKKPGASVKVSCKASGYSFTGYNMNWVRQAPGKSLEWIGDINPYYGATTYNQKFKGRVTLTVDTSTSTAYMELSSLRSEDTAVYYCARRGDYGDYEGWYFDVWGQGTMVTVSS[letters of human IgG1 constant region left out]LGGGGSGGGGSGGGGSPGQGTQSENSCTHFPGNLPNMLRDLRDAFSRVKTFFQMKDQLDNLLLKESLLEDFKGYLGCQALSEMIQFYLEEVMPQAENQDPDIKAHVNSLGENLKTLRLRLRRCHRFLPCENKSKAVEQVKNAFNKLQEKGIYKAMSEFDIFINYIEAYMTMKIRN
light: B1 light
notes: Antibody-cytokine fusion: human IL10 fused by a linker to the C-terminus of the heavy chain
B3 was tested, and the binding result [4] was “binds”, the EC50 [5] was 271 pM and the “IC50 (M), inhibition of AML5 cell proliferation (CSF1-dependent)” value [6] was 2.98e-09 M.

B4: humanized anti-CSF1R/IL10 fusion protein 6D4.hu41/IL10 (antibody, human IgG1, kappa)
heavy: B3 heavy with Q1E, V5Q, V20I, K23E, R38K, V68A
light: B1 light with L73F
notes: as for B3
B4 was tested, and the binding result [4] was “binds”, the EC50 [5] was 220 pM and the “IC50 (M), inhibition of AML5 cell proliferation (CSF1-dependent)” value [6] was 3.46e-09 M.

B5: chimeric anti-CSF1R/IL10 fusion protein 6M6/(IL10)2 (antibody, human IgG1, kappa)
heavy: DVQLQQSGTVLARPGASVKMSCKASGYTFTSYWIHWVKQRPGQGLEWIGAIYPGNRDTNYNQKFKGKAKLTTVTSASTAYMELSSLTNEDSAVYYCTGAFAGYYDWYFDVWGAGTTVTVSS[letters of human IgG1 constant region left out]LGGGGSGGGGSGGGGSPGQGTQSENSCTHFPGNLPNMLRDLRDAFSRVKTFFQMKDQLDNLLLKESLLEDFKGYLGCQALSEMIQFYLEEVMPQAENQDPDIKAHVNSLGENLKTLRLRLRRCHRFLPCENKSKAVEQVKNAFNKLQEKGIYKAMSEFDIFINYIEAYMTMKIRNGGGGSGGGGSGGGGSPGQGTQSENSCTHFPGNLPNMLRDLRDAFSRVKTFFQMKDQLDNLLLKESLLEDFKGYLGCQALSEMIQFYLEEVMPQAENQDPDIKAHVNSLGENLKTLRLRLRRCHRFLPCENKSKAVEQVKNAFNKLQEKGIYKAMSEFDIFINYIEAYMTMKIRN
light: DIVLTQSPASLAVSLGQRATISCKASQGVDYAGDSYMNWYQQKPGQPPKLLIYVASDLDSGIPARFSGSGSGTNFTLNIHPVEEEDAATYYCQQSYEDPRTFGGGTTLEIQRTVAAPSVFIFPPSDEQLKSGTASVVCLLNNFYPREAKVQWKVDNALQSGNSQESVTEQDSKDSTYSLSSTLTLSKADYEKHKVYACEVTHQGLSSPVTKSFNRGEC
notes: Antibody-cytokine fusion: two human IL10 in tandem fused by linkers to the C-terminus of the heavy chain
B5 showed an EC50 [5] of 232 pM and an EC50 [7] of 9360 pM.

Residue numbers refer to the chain shown, from its start.
